In all, about 310,000 compounds went through this assay and about 2,200 (0.71%) showed an effect of 50% or more. Effects have a minus sign here. The list shows a part of the results.
target: human ether-à-go-go-related gene (hERG) potassium channel (human, UniProt Q12809); experiment: primary screen, population patch clamp on CHO cells stably expressing hERG
Sequence (Q12809 whole entry, looked up): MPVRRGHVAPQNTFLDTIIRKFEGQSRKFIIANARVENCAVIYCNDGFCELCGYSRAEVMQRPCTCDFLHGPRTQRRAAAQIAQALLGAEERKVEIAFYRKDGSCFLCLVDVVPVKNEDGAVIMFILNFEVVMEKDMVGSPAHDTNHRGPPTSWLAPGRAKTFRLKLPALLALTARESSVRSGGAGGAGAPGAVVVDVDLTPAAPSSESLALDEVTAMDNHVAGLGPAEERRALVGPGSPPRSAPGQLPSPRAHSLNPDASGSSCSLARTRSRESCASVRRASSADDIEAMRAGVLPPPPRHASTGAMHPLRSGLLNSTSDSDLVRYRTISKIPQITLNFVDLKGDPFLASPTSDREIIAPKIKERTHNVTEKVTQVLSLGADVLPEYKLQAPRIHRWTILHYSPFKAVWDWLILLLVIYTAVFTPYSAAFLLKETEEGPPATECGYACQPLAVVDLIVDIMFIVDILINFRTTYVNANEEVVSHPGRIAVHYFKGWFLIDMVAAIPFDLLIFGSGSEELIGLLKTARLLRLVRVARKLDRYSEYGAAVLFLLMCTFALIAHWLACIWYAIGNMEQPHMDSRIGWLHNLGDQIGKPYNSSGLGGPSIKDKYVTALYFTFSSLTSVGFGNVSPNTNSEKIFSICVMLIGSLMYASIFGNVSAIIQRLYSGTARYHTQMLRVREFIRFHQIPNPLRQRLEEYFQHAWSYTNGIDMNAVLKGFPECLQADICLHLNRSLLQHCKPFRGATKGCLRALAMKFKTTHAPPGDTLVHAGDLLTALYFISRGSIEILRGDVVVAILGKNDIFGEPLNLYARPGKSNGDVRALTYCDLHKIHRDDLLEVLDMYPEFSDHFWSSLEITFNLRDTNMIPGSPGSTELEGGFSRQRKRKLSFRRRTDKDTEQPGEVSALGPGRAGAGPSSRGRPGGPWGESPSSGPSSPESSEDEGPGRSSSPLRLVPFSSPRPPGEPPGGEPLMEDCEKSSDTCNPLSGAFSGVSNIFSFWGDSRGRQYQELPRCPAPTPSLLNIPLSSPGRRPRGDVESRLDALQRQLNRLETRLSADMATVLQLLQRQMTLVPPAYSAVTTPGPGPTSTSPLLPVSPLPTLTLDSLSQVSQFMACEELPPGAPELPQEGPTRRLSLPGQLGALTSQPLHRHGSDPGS

Q: Which “hERG current change (%, negative = inhibition) at 1uM” value does the source give for `Cc1ccc(NC(=S)NCCC2=CCCCC2)cc1` here?
A: 7.84%

Q: `Cc1ccccc1C(=O)N=c1c(C#N)cc2c(=O)n3cccc(C)c3nc2n1Cc1ccco1` was tested. Which “hERG current change (%, negative = inhibition) at 1uM” value did it give?
A: 4.01%

Q: How did the “hERG current change (%, negative = inhibition) at 1uM” value turn out when `CCc1nn(CC(=O)N2CCC3(CC2)OCCO3)c(=O)c2cccn12` was run?
A: 15.6%

Q: `Cc1ccc(S(=O)(=O)Nn2cnnc2)cc1` was tested. Which “hERG current change (%, negative = inhibition) at 1uM” value did it give?
A: 9.63%

Q: With `O=C(NCc1ccco1)C1CCN(S(=O)(=O)N2CCC3(CC2)OCCO3)CC1` as the compound, how does the “hERG current change (%, negative = inhibition) at 1uM” value read?
A: 8.59%

Q: For `COc1ccc(C(=O)Nc2nnc(S(=O)(=O)Cc3ccc(F)cc3)s2)cc1`, which “hERG current change (%, negative = inhibition) at 1uM” value is on record?
A: 12.9%

Q: For `CCOC(=O)Cc1nnc(NC(=O)Nc2ccccc2)s1`, which “hERG current change (%, negative = inhibition) at 1uM” value is on record?
A: 5.39%

Q: How did the “hERG current change (%, negative = inhibition) at 1uM” value turn out when `C=CCN1CC(O)=C(c2ccccc2)C1=N` was run?
A: 10.8%

Q: `C(=N\N1CCN(Cc2ccccc2)CC1)/c1ccccc1` was tested. Which “hERG current change (%, negative = inhibition) at 1uM” value did it give?
A: 15.2%

Q: How did the “hERG current change (%, negative = inhibition) at 1uM” value turn out when `CN1C(=O)NC2(O)C(=O)c3ccccc3C12O` (stereo not drawn) was run?
A: 5.85%

Q: For `O=C(CCc1ccccc1)N1CCCN(C(=O)CCc2ccccc2)CC1`, which “hERG current change (%, negative = inhibition) at 1uM” value is on record?
A: -12.9%

Q: How did the “hERG current change (%, negative = inhibition) at 1uM” value turn out when `COc1ccc(Cl)cc1NC(=O)CSc1nc2sccc2c(=O)[nH]1` was run?
A: 3.43%

Q: Which “hERG current change (%, negative = inhibition) at 1uM” value does the source give for `CCCCSc1nnc(-c2cc(Br)ccc2N)c(=O)[nH]1` here?
A: 0.939%

Q: Which “hERG current change (%, negative = inhibition) at 1uM” value does the source give for `O/N=C(\c1ccc(Cl)cc1)c1cc2ccccc2o1` here?
A: 15.4%

Q: How did the “hERG current change (%, negative = inhibition) at 1uM” value turn out when `CCN(CC)CCNC(C(=O)Nc1cc(C(F)(F)F)ccc1Cl)c1ccccc1` (stereo not drawn) was run?
A: -85.3%

Q: Which “hERG current change (%, negative = inhibition) at 1uM” value does the source give for `COc1cc(C2Nc3ccc4ncccc4c3C3=C2C(=O)CCC3)cc(OC)c1O` (stereo not drawn) here?
A: 11.5%

Q: `O=C(NC(NC(=O)c1ccccc1)C(=O)c1ccccc1)c1ccccc1` was tested. Which “hERG current change (%, negative = inhibition) at 1uM” value did it give?
A: 6.23%

Q: `O=C(COc1ccc([N+](=O)[O-])cc1Cl)NCCc1ccccc1` was tested. Which “hERG current change (%, negative = inhibition) at 1uM” value did it give?
A: -9.59%

Q: For `COc1cc2nc(CN(C)Cc3ccc(F)cc3)[nH]c(=O)c2cc1OC`, which “hERG current change (%, negative = inhibition) at 1uM” value is on record?
A: 12.5%

Q: `CCOC(=O)C1(Cc2cccc(F)c2)CCN(Cc2cnn(CC)c2)CC1` was tested. Which “hERG current change (%, negative = inhibition) at 1uM” value did it give?
A: -4.74%

Q: Which “hERG current change (%, negative = inhibition) at 1uM” value does the source give for `COc1ccc(/C=N/NC(=O)Cc2n[nH]c(=O)[nH]c2=O)cc1` here?
A: 12.6%

Q: Which “hERG current change (%, negative = inhibition) at 1uM” value does the source give for `CCOC(=O)Cn1ncc2c3ccccc3n(CC(=O)OCC)c2c1=O` here?
A: 13.4%

Q: For `C=CCNc1nnc(SCC(=O)N2CCCCC2)c2ccccc12`, which “hERG current change (%, negative = inhibition) at 1uM” value is on record?
A: 10.3%

Q: With `Cc1ccccc1-c1nnc(CS(=O)(=O)c2ccccc2)o1` as the compound, how does the “hERG current change (%, negative = inhibition) at 1uM” value read?
A: -1.93%

Q: How did the “hERG current change (%, negative = inhibition) at 1uM” value turn out when `CC(C)c1ccc(NC(=O)c2ccc3c(c2)C(=O)N(Cc2cccnc2)C3=O)cc1` was run?
A: 8.25%

Q: `Cn1c2ccccc2n2c(=O)cc(-c3ccccc3)c(C#N)c12` was tested. Which “hERG current change (%, negative = inhibition) at 1uM” value did it give?
A: 1.18%

Q: For `CCn1ccnc1[C@@H]1C[C@H]2CN(c3ccccc3OC)C(=O)[C@]23CCCN13`, which “hERG current change (%, negative = inhibition) at 1uM” value is on record?
A: 11.8%

Q: For `O=C(Nc1ccc2c(c1)OCCO2)C1CCN(C(=O)c2ccc(F)cc2)CC1`, which “hERG current change (%, negative = inhibition) at 1uM” value is on record?
A: 5.7%

Q: With `COc1ccc([N+](=O)[O-])cc1N(CC(=O)N1CCCCC1)S(C)(=O)=O` as the compound, how does the “hERG current change (%, negative = inhibition) at 1uM” value read?
A: 14.3%

Q: With `Cc1cc(C)c2[nH]c(O)c(N=Nc3ccc(C(=O)O)cc3)c2c1` as the compound, how does the “hERG current change (%, negative = inhibition) at 1uM” value read?
A: 18.2%

Q: `Cc1c(NC(=O)CSc2nnnn2-c2ccc(C(=O)O)cc2)c(=O)n(-c2ccccc2)n1C` was tested. Which “hERG current change (%, negative = inhibition) at 1uM” value did it give?
A: 16.2%

Q: `COC(=O)C(C)Oc1cc(OC(C)C(=O)OC)c2c(-c3ccccc3)cc(=O)oc2c1` (stereo not drawn) was tested. Which “hERG current change (%, negative = inhibition) at 1uM” value did it give?
A: 7.88%

Q: Which “hERG current change (%, negative = inhibition) at 1uM” value does the source give for `Cc1ccccc1NC1=CC(=O)CC(C)(C)C1` here?
A: -0.656%

Q: `CCCCn1ccc(O)c(Cc2ccc(F)cc2)c1=O` was tested. Which “hERG current change (%, negative = inhibition) at 1uM” value did it give?
A: 6.54%

Q: Which “hERG current change (%, negative = inhibition) at 1uM” value does the source give for `COc1ccc(/C=C/C(=O)c2c(C)nc3ccccn23)cc1` here?
A: -0.193%

Q: With `Cc1cc(=O)n2c(sc3ccccc32)c1C#N` as the compound, how does the “hERG current change (%, negative = inhibition) at 1uM” value read?
A: 9.96%

Q: `C/C(=N\NC(=O)c1nnn(-c2nonc2N)c1C(C)C)c1ccc2ccccc2c1` was tested. Which “hERG current change (%, negative = inhibition) at 1uM” value did it give?
A: 10%

Q: Which “hERG current change (%, negative = inhibition) at 1uM” value does the source give for `CCCCCCCC(=O)NNC(=O)Cc1ccccc1` here?
A: 0.0529%

Q: `CC(NC(=O)c1ccc(Cl)cc1)C(=O)N1CCCCC1` (stereo not drawn) was tested. Which “hERG current change (%, negative = inhibition) at 1uM” value did it give?
A: 17.6%

Q: How did the “hERG current change (%, negative = inhibition) at 1uM” value turn out when `COc1cccc(CNC(=O)c2c[nH]n3c(=O)c(Cl)c(C)nc23)c1` was run?
A: 2.03%

Q: For `O=C(NCC1CCCO1)C(c1ccccn1)N(Cc1ccccc1Cl)C(=O)CN1C(=O)c2ccccc2S1(=O)=O` (stereo not drawn), which “hERG current change (%, negative = inhibition) at 1uM” value is on record?
A: 8.75%

Q: `CCOC(=O)c1c(C)[nH]c(C(=O)COC(=O)c2ccccn2)c1C` was tested. Which “hERG current change (%, negative = inhibition) at 1uM” value did it give?
A: -5.28%

Q: For `O=S(=O)(NCC1OCCc2ccccc21)c1ccccc1` (stereo not drawn), which “hERG current change (%, negative = inhibition) at 1uM” value is on record?
A: 6.18%

Q: With `O=S(=O)(c1ccc(F)cc1)c1snnc1-c1ccccc1` as the compound, how does the “hERG current change (%, negative = inhibition) at 1uM” value read?
A: 13.1%

Q: Which “hERG current change (%, negative = inhibition) at 1uM” value does the source give for `Cc1cc(NC(=O)Cc2ccccc2)c2ccccc2n1` here?
A: 14%

Q: With `O=C1NN(c2ccccc2)C(=O)/C1=C\c1coc2ccc(O)cc2c1=O` as the compound, how does the “hERG current change (%, negative = inhibition) at 1uM” value read?
A: -2.2%

Q: How did the “hERG current change (%, negative = inhibition) at 1uM” value turn out when `COc1ccc(CCn2c(C(C)C)nc3c(c(=O)c4ccccc4n3C)c2=O)cc1` was run?
A: -14.3%

Q: `CCN(CC(=O)Nc1ccc(OC)cc1)C(=O)CSCC(=O)Nc1ccc(C)cc1` was tested. Which “hERG current change (%, negative = inhibition) at 1uM” value did it give?
A: 3.04%

Q: With `COCc1c(C(=O)N2CCN(Cc3nc4ccccc4s3)CC2)oc2ccccc12` as the compound, how does the “hERG current change (%, negative = inhibition) at 1uM” value read?
A: -19.6%

Q: `O=C(/C=C\c1ccc(-c2ccccc2)o1)c1ccccc1` was tested. Which “hERG current change (%, negative = inhibition) at 1uM” value did it give?
A: -0.689%

Q: Which “hERG current change (%, negative = inhibition) at 1uM” value does the source give for `Cc1cc2c(cc3c(=O)n(CC(=O)NCCCN4CC(C)CC(C)C4)ncn32)s1` (stereo not drawn) here?
A: -13.2%

Q: With `Cc1ccsc1C(=O)Nc1ccccc1N1CCCC1` as the compound, how does the “hERG current change (%, negative = inhibition) at 1uM” value read?
A: 4.57%

Q: Which “hERG current change (%, negative = inhibition) at 1uM” value does the source give for `COC(=O)[C@H](CCSC)NC(=O)Nc1cc(OC)cc(OC)c1` here?
A: 8.39%

Q: Which “hERG current change (%, negative = inhibition) at 1uM” value does the source give for `CC(C)CC(=O)Nc1ccc(S(=O)(=O)Nc2nccs2)cc1` here?
A: 2.14%

Q: For `CCOC(=O)c1ccc(NC(=O)CS(=O)(=O)c2cn(CC)c3ccccc23)cc1`, which “hERG current change (%, negative = inhibition) at 1uM” value is on record?
A: 4.04%

Q: `CCN(c1ccccc1)S(=O)(=O)c1ccc(C(=O)NNC(=O)c2ccccc2F)cc1` was tested. Which “hERG current change (%, negative = inhibition) at 1uM” value did it give?
A: 9.49%

Q: How did the “hERG current change (%, negative = inhibition) at 1uM” value turn out when `O=C(CSc1nnc(-c2ccccc2)c(-c2ccccc2)n1)NC1CCS(=O)(=O)C1` (stereo not drawn) was run?
A: 11.8%
